{"source": "paper PMC4336329", "about": "(PLoS ONE, 2015)", "note": "Hit rate of the full screen: of about 310,000 compounds, about 2,200 (0.71%) showed an effect of 50% or more. The effect is printed as a negative number. This is one part of the list."}
{"target": "human ether-à-go-go-related gene (hERG) potassium channel (human, UniProt Q12809)", "sequence (Q12809 whole entry, looked up)": "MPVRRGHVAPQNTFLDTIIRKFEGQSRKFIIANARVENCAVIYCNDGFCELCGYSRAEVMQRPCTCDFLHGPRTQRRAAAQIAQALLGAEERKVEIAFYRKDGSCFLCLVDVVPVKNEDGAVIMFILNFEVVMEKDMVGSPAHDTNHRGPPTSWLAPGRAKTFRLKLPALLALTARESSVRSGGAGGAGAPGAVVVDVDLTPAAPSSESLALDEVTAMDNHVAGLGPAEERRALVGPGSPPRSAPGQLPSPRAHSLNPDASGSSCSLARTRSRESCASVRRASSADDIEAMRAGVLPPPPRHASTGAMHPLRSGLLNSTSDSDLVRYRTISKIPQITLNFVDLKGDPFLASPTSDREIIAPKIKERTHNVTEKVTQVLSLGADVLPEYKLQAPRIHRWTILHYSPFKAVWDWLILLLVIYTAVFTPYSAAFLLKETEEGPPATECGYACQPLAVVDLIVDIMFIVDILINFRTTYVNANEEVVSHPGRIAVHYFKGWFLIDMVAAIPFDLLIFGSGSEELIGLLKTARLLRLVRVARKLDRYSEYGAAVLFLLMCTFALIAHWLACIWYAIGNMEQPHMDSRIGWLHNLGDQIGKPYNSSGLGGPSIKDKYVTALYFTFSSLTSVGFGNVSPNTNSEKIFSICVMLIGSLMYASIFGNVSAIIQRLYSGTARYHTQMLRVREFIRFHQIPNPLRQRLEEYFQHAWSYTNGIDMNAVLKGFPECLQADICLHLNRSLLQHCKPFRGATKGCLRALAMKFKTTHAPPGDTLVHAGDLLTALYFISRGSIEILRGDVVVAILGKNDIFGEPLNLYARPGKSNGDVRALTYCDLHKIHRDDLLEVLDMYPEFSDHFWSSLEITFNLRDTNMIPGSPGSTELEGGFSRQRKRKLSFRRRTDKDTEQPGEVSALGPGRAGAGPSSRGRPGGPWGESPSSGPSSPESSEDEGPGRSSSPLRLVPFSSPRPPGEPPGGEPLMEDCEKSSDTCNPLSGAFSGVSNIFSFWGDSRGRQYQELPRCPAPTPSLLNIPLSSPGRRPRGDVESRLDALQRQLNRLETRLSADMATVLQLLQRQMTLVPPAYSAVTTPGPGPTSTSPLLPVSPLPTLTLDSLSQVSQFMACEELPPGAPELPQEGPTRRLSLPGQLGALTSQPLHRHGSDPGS", "test": "primary screen, population patch clamp on CHO cells stably expressing hERG", "units": {"hERG current change (%, negative = inhibition) at 1uM": "%"}}
{"smiles": "CCCn1c(CN2CCCCC2CC)nc2c1c(=O)n(C)c(=O)n2C", "note": "(stereo not shown)", "hERG current change (%, negative = inhibition) at 1uM": 8.63}
{"smiles": "C=CCNC(=S)Nc1sc2c(c1C(=O)OCC)CC(C)(CC)OC2", "note": "(stereo not shown)", "hERG current change (%, negative = inhibition) at 1uM": -3.13}
{"smiles": "CC(C[N+](C)(C)C)OC(N)=O.[Cl-]", "note": "(stereo not shown)", "hERG current change (%, negative = inhibition) at 1uM": 9.87}
{"smiles": "O=S1(=O)c2ccccc2C(CCO)N1Cc1ccccc1", "note": "(stereo not shown)", "hERG current change (%, negative = inhibition) at 1uM": 9.77}
{"smiles": "O=C(COc1ccccc1Cl)NCCC1=CCCCC1", "hERG current change (%, negative = inhibition) at 1uM": 9.45}
{"smiles": "O=C(CCCOc1ccc(Cl)cc1Cl)N/N=C/c1ccc(Cl)cc1", "hERG current change (%, negative = inhibition) at 1uM": 1.91}
{"smiles": "CCCN(CC(=O)Nc1ccccc1C)C(=O)c1sc2ccccc2c1Cl", "hERG current change (%, negative = inhibition) at 1uM": 8.62}
{"smiles": "CC(=O)c1ccc(OCCCC(=O)Nc2ccc3c(c2)OCCO3)cc1", "hERG current change (%, negative = inhibition) at 1uM": 14.5}
{"smiles": "CCOc1ccc(NC(=O)CSc2nnc(C)n2CC2CCCO2)cc1", "note": "(stereo not shown)", "hERG current change (%, negative = inhibition) at 1uM": 10.9}
{"smiles": "CCN(CC)CCN1C(=O)C(=O)/C(=C(/O)c2ccc(C)cc2)C1c1cccnc1", "note": "(stereo not shown)", "hERG current change (%, negative = inhibition) at 1uM": 9.31}
{"smiles": "Cc1ccc(/C=C(\\C#N)C(=O)N2CCCC2)c(C)c1", "hERG current change (%, negative = inhibition) at 1uM": 23.5}
{"smiles": "Cc1cc(C)n2c(SCCC(C)C)nnc2n1", "hERG current change (%, negative = inhibition) at 1uM": -6.81}
{"smiles": "CCCOc1cc(C)c(Cl)cc1S(=O)(=O)N(CC)CC", "hERG current change (%, negative = inhibition) at 1uM": 3.85}
{"smiles": "O=C(O)CCn1cc(C(=O)O)c(-c2ccccc2)n1", "hERG current change (%, negative = inhibition) at 1uM": 14.4}
{"smiles": "O=C(NCc1cccs1)C1CCCN(C(=O)Nc2ccccc2)C1", "note": "(stereo not shown)", "hERG current change (%, negative = inhibition) at 1uM": 12.7}
{"smiles": "Nc1ccc2c3c(cccc13)CC2", "hERG current change (%, negative = inhibition) at 1uM": 2.18}
{"smiles": "CC1CCc2c(C(=O)OCC(=O)Nc3cccc(S(=O)(=O)N4CCCCCC4)c3)csc2C1", "note": "(stereo not shown)", "hERG current change (%, negative = inhibition) at 1uM": 10.4}
{"smiles": "CCc1ccc2nc(Nc3ccc(OC)cc3OC)c(C#N)cc2c1", "hERG current change (%, negative = inhibition) at 1uM": 7.84}
{"smiles": "COC(=O)NC(=S)N1CCOCC1", "hERG current change (%, negative = inhibition) at 1uM": 5.23}
{"smiles": "COc1ccc(C(=O)C2CCN(C(=O)c3ccco3)CC2)cc1", "hERG current change (%, negative = inhibition) at 1uM": 9.65}
{"smiles": "O=C(O)COn1c(-c2ccc(Cl)cc2)nc2ccc(Cl)cc21", "hERG current change (%, negative = inhibition) at 1uM": 14.8}
{"smiles": "CC(C)c1cc(C(=O)N/N=C/c2c[nH]c3ccccc23)n[nH]1", "hERG current change (%, negative = inhibition) at 1uM": 10.8}
{"smiles": "COC(=O)C1=C(C)OC(N)=C(C#N)C1c1ccc(OC)c(CSc2ccccn2)c1", "note": "(stereo not shown)", "hERG current change (%, negative = inhibition) at 1uM": 2.68}
{"smiles": "COc1ccccc1NS(=O)(=O)c1cc(NC(=S)NCCN2CCOCC2)ccc1N1CCOCC1", "hERG current change (%, negative = inhibition) at 1uM": 0.508}
{"smiles": "Cc1cc(=O)oc2c(C)c(OCC(=O)NCCCN3CCCC3=O)ccc12", "hERG current change (%, negative = inhibition) at 1uM": 15.8}
{"smiles": "CCOc1ccc(N/N=C(/C#N)C(N)=O)cc1", "hERG current change (%, negative = inhibition) at 1uM": 3.39}
{"smiles": "O=C(NCc1ccco1)C12CN(Cc3ccccc3)CC1C(c1ccc([N+](=O)[O-])cc1)=NO2", "note": "(stereo not shown)", "hERG current change (%, negative = inhibition) at 1uM": -21.7}
{"smiles": "O=C(NCCCn1ccnc1)Nc1cccc2ccccc12", "hERG current change (%, negative = inhibition) at 1uM": 8.71}
{"smiles": "Br.c1ccc2oc(SCc3cn4ccsc4n3)nc2c1", "hERG current change (%, negative = inhibition) at 1uM": 6.12}
{"smiles": "CCCCn1c(=O)[nH]c(=O)c2c1nc(COC(=O)c1c(C)noc1C)n2CCC", "hERG current change (%, negative = inhibition) at 1uM": -20.9}
{"smiles": "Cc1onc(-c2c(F)cccc2Cl)c1C(=O)OCN1C(=O)c2ccccc2C1=O", "hERG current change (%, negative = inhibition) at 1uM": 11.7}
{"smiles": "Cc1cc(C)cc(NC(=O)CCC(=O)Nc2cc(C)on2)c1", "hERG current change (%, negative = inhibition) at 1uM": 14.3}
{"smiles": "CCOc1cc(C(=O)Nc2ccc3c(c2)OCO3)ccc1OCCOc1ccccc1Cl", "hERG current change (%, negative = inhibition) at 1uM": 6.95}
{"smiles": "COc1ccc(-n2c(C)cc(C(=O)CSc3nn4c(=O)c(C(C)(C)C)nnc4s3)c2C)cc1", "hERG current change (%, negative = inhibition) at 1uM": 4.53}
{"smiles": "COc1ccc(-c2cn3ccc4ccccc4c3n2)cc1", "hERG current change (%, negative = inhibition) at 1uM": 13.5}
{"smiles": "Cc1ccc(CNC(=O)c2cc(=O)c3cc(C)ccc3o2)cc1", "hERG current change (%, negative = inhibition) at 1uM": 17.7}
{"smiles": "Cc1cc(C)nc(NC(=O)COc2cc(Cl)cc(Cl)c2)n1", "hERG current change (%, negative = inhibition) at 1uM": 8.54}
{"smiles": "Cc1ccc(S(=O)(=O)NCCC(=O)Nc2ncccc2O)cc1C", "hERG current change (%, negative = inhibition) at 1uM": 15.5}
{"smiles": "Cc1ccc(S(=O)(=O)NCC(=O)N2CCc3ccccc3C2)cc1", "hERG current change (%, negative = inhibition) at 1uM": 7.38}
{"smiles": "CCN(CC)CCn1c(SCC(=O)NCc2ccco2)nc2c(sc3ccccc32)c1=O", "hERG current change (%, negative = inhibition) at 1uM": -50.4}
{"smiles": "Cn1c(C(=O)Nc2ccc3c(c2)OCO3)cc2c(=O)n(C)c3ccccc3c21", "hERG current change (%, negative = inhibition) at 1uM": 9.7}
{"smiles": "CCC(=O)N1CCc2cc(S(=O)(=O)NCCC(=O)Nc3ccc(OC)cc3)ccc21", "hERG current change (%, negative = inhibition) at 1uM": -6.48}
{"smiles": "Fc1ccccc1Cn1nnc2c(NCCc3ccccn3)ncnc21", "hERG current change (%, negative = inhibition) at 1uM": 2.28}
{"smiles": "COc1ccc(C2CC(c3cccs3)=NN2C(=O)CSc2nc(=O)n3ccc(C)cc3n2)cc1", "note": "(stereo not shown)", "hERG current change (%, negative = inhibition) at 1uM": 2.7}
{"smiles": "O=C(COC(=O)C1CC2CCCC(C1)C2=O)NC1CCCCC1", "note": "(stereo not shown)", "hERG current change (%, negative = inhibition) at 1uM": 14.2}
{"smiles": "C=CCSC1=N/C(=C\\c2cc(OC)c3c(c2)OCO3)C(=O)S1", "hERG current change (%, negative = inhibition) at 1uM": 8.6}
{"smiles": "CC1=C(c2ccc(C)cc2)S(=O)(=O)N(CC(=O)O)C1=O", "hERG current change (%, negative = inhibition) at 1uM": -9.85}
{"smiles": "O=S(=O)(c1ccc(F)cc1)N1CCN(C(=S)NC2CCCC2)CC1", "hERG current change (%, negative = inhibition) at 1uM": 9.1}
{"smiles": "O=C(OCCCCOC(=O)c1ccccc1)c1ccccc1", "hERG current change (%, negative = inhibition) at 1uM": 13.6}
{"smiles": "CCc1cccc2c1Sc1ccccc1CC2N1CCNCC1.CS(=O)(=O)O", "note": "(stereo not shown)", "hERG current change (%, negative = inhibition) at 1uM": 10.2}
{"smiles": "COc1ccc(-n2nc3c(N4CCC(C(=O)NCC(C)c5ccccc5)CC4)nnc(C)c3c2C)cc1", "note": "(stereo not shown)", "hERG current change (%, negative = inhibition) at 1uM": 8.32}
{"smiles": "CC1CCCN(C(=O)c2ccc(OC3CCN(CCc4ccccc4)CC3)cc2)C1", "note": "(stereo not shown)", "hERG current change (%, negative = inhibition) at 1uM": -30.3}
{"smiles": "O=C(NC12CC3CC(CC(C3)C1)C2)c1ccco1", "hERG current change (%, negative = inhibition) at 1uM": 7.87}
{"smiles": "C/C(CC(=O)Nc1cccnc1)=N/NC(=O)COc1ccc(Cl)cc1Br", "hERG current change (%, negative = inhibition) at 1uM": 10.5}
{"smiles": "CCC/C(=N/Nc1ccc(Cl)cc1)c1cnnc(-c2ccccc2)n1", "hERG current change (%, negative = inhibition) at 1uM": -13.1}
{"smiles": "CC(=O)Nc1ccc(Oc2cc(NC(C)=O)cc([N+](=O)[O-])c2)cc1", "hERG current change (%, negative = inhibition) at 1uM": 14.7}
{"smiles": "CCCCCCOc1ccc(OC(=O)c2ccncc2)cc1", "hERG current change (%, negative = inhibition) at 1uM": 2.34}
{"smiles": "CCOC(=O)N1CCN(S(=O)(=O)N2CCCC(C(=O)NCCCN3CC(C)CC(C)C3)C2)CC1", "note": "(stereo not shown)", "hERG current change (%, negative = inhibition) at 1uM": 13.7}
